Experimental data: the RNAGym collection of RNA variant scans (doi:10.7554/elife.90254)
The source gives no read counts; variants with many changes may rest on few reads.

B1: LINE1-mini (parent)
chain: GGCAGAGCUCAACACAGCGUGGCAAAGUGGCUGUGGCUAGACUGCC

Variants of: B1
Assay: self-cleavage, relative activity (ratio to wild type); higher = more cleavage; in vitro, sequencing; the parent is a self-cleaving ribozyme

For C10U U32G G44C C45G, which self-cleavage is on record?
Its self-cleavage is 0.

With C10U G22A G27C C46U as the variant, how does the self-cleavage read?
The self-cleavage was 0.31.

For C10U U34A C37A, which self-cleavage is on record?
The self-cleavage was 0.01.

With A11C G22C U43C as the variant, how does the self-cleavage read?
Its self-cleavage is 0.02.

For C10U C18A U32A A39C G44C, which self-cleavage is on record?
Its self-cleavage is 0.

Which self-cleavage does the source give for A11C A12U G17C G30C C37G A41U here?
The self-cleavage was 0.

Which self-cleavage does the source give for C10U C15A A41G here?
Its self-cleavage is 0.08.

With A11C C18G A25G C46U as the variant, how does the self-cleavage read?
The self-cleavage was 0.02.

Which self-cleavage does the source give for C10U G29U G30U G44U here?
Its self-cleavage is 0.19.

For A11C A25C A39U G40C A41C, which self-cleavage is on record?
Its self-cleavage is 0.01.

With A11C G19C A25U U34C as the variant, how does the self-cleavage read?
Its self-cleavage is 0.01.

With C10U G17U A24C G40U as the variant, how does the self-cleavage read?
The self-cleavage was 0.02.

With A11C A12G U20A as the variant, how does the self-cleavage read?
The self-cleavage was 0.03.

For C10U U32G G36U, which self-cleavage is on record?
The self-cleavage was 0.08.

With C10U C15U G17U C23U A26U C45U as the variant, how does the self-cleavage read?
Its self-cleavage is 0.05.

Which self-cleavage does the source give for C10U G17U A24U U38C C42A here?
The self-cleavage was 0.03.

Which self-cleavage does the source give for A11C C37G C45U here?
Its self-cleavage is 0.

For A11C A16C C46U, which self-cleavage is on record?
Its self-cleavage is 0.01.

Which self-cleavage does the source give for C10U C23U G36C G44C here?
Its self-cleavage is 0.04.

With A11C G19A A26G A39G as the variant, how does the self-cleavage read?
Its self-cleavage is 0.01.

With A11C A12C G30U as the variant, how does the self-cleavage read?
The self-cleavage was 0.01.

For C10U G19A A26G U32A, which self-cleavage is on record?
The self-cleavage was 0.05.

Which self-cleavage does the source give for A11C A14C A16G C18U U20A A24C here?
The self-cleavage was 0.

Which self-cleavage does the source give for C10U G33A C37U G44A here?
Its self-cleavage is 0.02.

For C10U G17A U20G C23U, which self-cleavage is on record?
Its self-cleavage is 0.03.

Which self-cleavage does the source give for A11C G22U G27U A39G here?
Its self-cleavage is 0.

For C10U G29A G30C C37G, which self-cleavage is on record?
The self-cleavage was 0.04.

With C10U U28A G35A U38C as the variant, how does the self-cleavage read?
Its self-cleavage is 0.01.

With C10U G19C C23U G29A G33C as the variant, how does the self-cleavage read?
The self-cleavage was 0.04.

For C10U G29A A39C, which self-cleavage is on record?
Its self-cleavage is 0.12.

For A11C G19U A25U, which self-cleavage is on record?
Its self-cleavage is 0.02.

With A11C U28A C46U as the variant, how does the self-cleavage read?
Its self-cleavage is 0.02.

With A11C G17U A24G as the variant, how does the self-cleavage read?
The self-cleavage was 0.03.

With A11C C13A G30C as the variant, how does the self-cleavage read?
Its self-cleavage is 0.02.

With C10U C31A G33C as the variant, how does the self-cleavage read?
Its self-cleavage is 0.01.

Which self-cleavage does the source give for A11C C42G U43G C45G here?
Its self-cleavage is 0.

With A11C A12U A14U G44C as the variant, how does the self-cleavage read?
The self-cleavage was 0.03.

Which self-cleavage does the source give for A11C G27A G30C G44A here?
The self-cleavage was 0.07.

Which self-cleavage does the source give for A11C A14U G21U G22A G27A here?
The self-cleavage was 0.02.

Which self-cleavage does the source give for A11C G21U A41U here?
Its self-cleavage is 0.02.

Which self-cleavage does the source give for A11C G17A A39C here?
The self-cleavage was 0.02.

Which self-cleavage does the source give for A11C C13G C15U A24C G36A here?
The self-cleavage was 0.02.

Which self-cleavage does the source give for C10U G27C C45A here?
Its self-cleavage is 0.03.

For C10U C15A A26U G29A C45U, which self-cleavage is on record?
The self-cleavage was 0.04.

For A11C A26C C37A, which self-cleavage is on record?
The self-cleavage was 0.03.

For C10U G40A C46U, which self-cleavage is on record?
The self-cleavage was 0.02.

For C10U G40A C46A, which self-cleavage is on record?
Its self-cleavage is 0.05.

With C10U G19C G35U G40C C42U as the variant, how does the self-cleavage read?
The self-cleavage was 0.08.

Which self-cleavage does the source give for A11C G17A G27A here?
The self-cleavage was 0.03.

With C10U C15G G27C as the variant, how does the self-cleavage read?
Its self-cleavage is 0.04.

With C10U G17U G22U U28G as the variant, how does the self-cleavage read?
Its self-cleavage is 0.16.

For A11C C15A G27U U34C G40U, which self-cleavage is on record?
Its self-cleavage is 0.

Which self-cleavage does the source give for C10U G22A U34A C37G U43C here?
The self-cleavage was 0.04.

Which self-cleavage does the source give for A11C A16U U32G here?
The self-cleavage was 0.01.

With C10U C18U U20A A26U G30C U34A C37G as the variant, how does the self-cleavage read?
The self-cleavage was 0.

Which self-cleavage does the source give for A11C C18U C23U C42U here?
The self-cleavage was 0.

For A11C G27U U43A C46A, which self-cleavage is on record?
Its self-cleavage is 0.01.

With A11C C18G U32C as the variant, how does the self-cleavage read?
Its self-cleavage is 0.02.

With A11C C13G A39C as the variant, how does the self-cleavage read?
The self-cleavage was 0.02.

For A11C C18A U38G, which self-cleavage is on record?
Its self-cleavage is 0.01.

With C10U C15U C31A G44U as the variant, how does the self-cleavage read?
Its self-cleavage is 0.05.

Which self-cleavage does the source give for C10U U28A C45G here?
The self-cleavage was 0.37.

For A11C G21C U34C G40A U43C, which self-cleavage is on record?
Its self-cleavage is 0.

With C10U C15U C18U G19U as the variant, how does the self-cleavage read?
The self-cleavage was 0.35.

Which self-cleavage does the source give for A11C C18A G44C here?
The self-cleavage was 0.01.

For C10U C31U C37A, which self-cleavage is on record?
The self-cleavage was 0.02.

For C10U G21U G27A G40U, which self-cleavage is on record?
Its self-cleavage is 0.

Which self-cleavage does the source give for C10U G29U G40A C45G here?
The self-cleavage was 0.05.

Which self-cleavage does the source give for A11C C15U C46G here?
Its self-cleavage is 0.01.

With A11C C18U C42G as the variant, how does the self-cleavage read?
Its self-cleavage is 0.01.

Which self-cleavage does the source give for A11C A12U G40U here?
Its self-cleavage is 0.08.

With C10U C23U G36A as the variant, how does the self-cleavage read?
Its self-cleavage is 0.03.

Which self-cleavage does the source give for C10U C23U C45A here?
The self-cleavage was 0.35.

Which self-cleavage does the source give for A11C A14U G27A here?
Its self-cleavage is 0.01.

For C10U U28A U32G, which self-cleavage is on record?
The self-cleavage was 0.29.

Which self-cleavage does the source give for C10U G19U C23U G36A here?
Its self-cleavage is 0.04.

Which self-cleavage does the source give for C10U C15A G22U G33A C42U here?
The self-cleavage was 0.03.

For C10U G35U G36U C42A G44A, which self-cleavage is on record?
Its self-cleavage is 0.01.

Which self-cleavage does the source give for A11C U32G G33A C42A here?
The self-cleavage was 0.01.

With A11C A14U G22U G40U as the variant, how does the self-cleavage read?
The self-cleavage was 0.01.

With C10U G36A C45A as the variant, how does the self-cleavage read?
The self-cleavage was 0.01.

Which self-cleavage does the source give for A11C A14C A24G here?
The self-cleavage was 0.05.

With A11C G30A G40U C46G as the variant, how does the self-cleavage read?
The self-cleavage was 0.01.
